In patent EP4732851A9, “LINKER, ANTIBODY-DRUG CONJUGATE, AND PREPARATION METHOD THEREFOR” (Fudan University, priority 2024, dated 2025):

How the values were obtained:
NCI-H1373 cells = assay: Lung cancer NCI-H1373 in vivo model; parameters: species or system Balb/c nude mice; settings: 10 mg/kg
Method: Lung cancer NCI-H1373 in vivo model: 5x10^6 NCI-H1373 cells were inoculated onto the backs of 6-week-old female Balb/c nude mice. On day 8, when the tumor volume reached ~200 mm^3, the animals were randomly grouped, with 10 tumors per group. Dosing was performed once weekly for a total of 2 doses (on days 8 and 15).

[1] = Excerpt: This batch of FD40-LP5 conjugate was used for freeze-thaw stability and thermal stability tests.
[2] = system: In Vitro Blood-Brain Barrier (BBB) Model; assay: Permeability in an in vitro blood-brain barrier (BBB) model; assay type: in vitro ADME, Mouse; settings: 100 µg/mL in upper chamber; at both the 6h and 24h time points
HCC1806 cells = assay: Triple-negative breast cancer (TNBC) HCC1806 model; assay type: in vivo, Balb/c nude mice; settings: 10 mg/kg, 5 mg/kg, and 2.5 mg/kg, single dose
Method: Triple-negative breast cancer (TNBC) HCC1806 model: HCC1806 cells in the logarithmic growth phase were inoculated into the mammary fat pads of 6-week-old female Balb/c nude mice at a density of 3×10^6 cells per 200 µL of serum-free medium. When the tumor volume reached 200 mm^3, the animals were randomly grouped, with 10 tumors per group, receiving a single dose.

HPAF-II cells = assay: Pancreatic cancer HPAF-II in vivo model (TF-Topo1 inhibitor NDC); parameters: species or system Balb/c nude mice
Excerpt: Pancreatic cancer HPAF-II in vivo model: 5x10^6 HPAF-II cells were inoculated onto the backs of 6-week-old female Balb/c nude mice. On day 7, when the tumor volume reached ~150 mm^3, the animals were randomly grouped for treatment, with 10 tumors per group, receiving a single dose.
Similar pancreatic cancer HPAF-II in vivo model: on day 6, when the tumor volume reached ~200 mm^3, the animals were randomly grouped for treatment, with 10 tumors per group, receiving a single dose.

B1: FD40-LP5 (conjugate)
chain: QVQLVESGGGLVKPGGSLRLSCTASETISSTYIMGWHRQAPGKGRELVAVISGDGVTHYADFVKGRFTISRDNAKNTVYLQMNFLRAEDTAVYYCYAAGRWNHWGQGTMVTVSS[letters of human IgG1 Fc with C220S (EU numbers) not shown]
tumor suppression on day 32 (17 days after the last dose) (NCI-H1373 cells; once weekly for 2 doses): maintained excellent tumor suppression effects | tumor growth (NCI-H1373 cells; once weekly for 2 doses (days 8 and 15), compared to hIgG1-MMAE control group): significantly inhibited tumor growth | freeze-thaw stability [1]: excellent freeze-thaw stability | thermal stability [1]: excellent thermal stability | Appearance ([1]; 0 week): Clear liquid | BCA Conc. ([1]; 0 week): 11.14 mg/mL | Monomer ([1]; 0 week): 96.81% | Reduced MS-DAR ([1]; 0 week): 4.02 | Appearance ([1]; 0x freeze thaw): Clear liquid | BCA Conc. ([1]; 0x freeze thaw): 11.14 mg/mL | Monomer ([1]; 0x freeze thaw): 97.39% | Reduced MS-DAR ([1]; 0x freeze thaw): 4 | Appearance ([1]; 1x freeze thaw): Clear liquid | BCA Conc. ([1]; 1x freeze thaw): 11.54 mg/mL | Monomer ([1]; 1x freeze thaw): 96.8% | Reduced MS-DAR ([1]; 1x freeze thaw): 4.03 | Appearance ([1]; 3x freeze thaw): Clear liquid | BCA Conc. ([1]; 3x freeze thaw): 11.5 mg/mL | Monomer ([1]; 3x freeze thaw): 96.7% | Reduced MS-DAR ([1]; 3x freeze thaw): 4.03 | Appearance ([1]; 5x freeze thaw): Clear liquid | BCA Conc. ([1]; 5x freeze thaw): 11.49 mg/mL | Monomer ([1]; 5x freeze thaw): 96.94% | Reduced MS-DAR ([1]; 5x freeze thaw): 4.03 | Appearance ([1]; 25 °C 1 week): Clear liquid | BCA Conc. ([1]; 25 °C 1 week): 10.61 mg/mL | Monomer ([1]; 25 °C 1 week): 96.79% | Reduced MS-DAR ([1]; 25 °C 1 week): 4 | Appearance ([1]; 25 °C 2 weeks): Clear liquid | BCA Conc. ([1]; 25 °C 2 weeks): 11.42 mg/mL | Monomer ([1]; 25 °C 2 weeks): 96.67% | Reduced MS-DAR ([1]; 25 °C 2 weeks): 3.99 | BBB penetration rate relative to TF-ADC HuSC1-39-MMAE [2]: approximately 2 times | tumor therapeutic effect (HCC1806 cells): excellent or good tumor therapeutic effects | therapeutic effect compared with FD40-LP1 (HPAF-II cells; 10 mg/kg single dose on day 7): superior to that of FD40-LP1 | tumor growth (HPAF-II cells; 10 mg/kg single dose on day 7, compared to hIgG1-MMAE control group): significantly inhibited tumor growth | anti-tumor therapeutic effect compared to 10 mg/kg FD40-GGFG-Dxd (HPAF-II cells; 10 mg/kg, 5 mg/kg, 2.5 mg/kg, single dose on day 6): superior anti-tumor therapeutic effects

Where two headings read alike, the source gives them in different places.
